In PubChem BioAssay AID1347120 (National Center for Advancing Translational Sciences (NCATS), 2019):
Screen size: about 390,000 compounds; about 930 (0.24%) were called active. Inconclusive means that the source gave no clear call. Such entries were picked first, then a sample of the others. Calls follow the shape of the dose curve; as a rule, active = well fitted activation curve with a large enough effect; inconclusive = small, poorly fitted or top-dose-only effect; inactive = no such curve, though single readings can be large or run the other way. Where the call is inconclusive, the potency comes from a doubtful curve fit.

test: qHTS for Suppressors of FUS Proteinopathy: Primary screen using FUS-linked yeast assay; also: nearly all actives have a fitted effect of over 55% in size; conditions: S. cerevisiae FUS-expressing, OD600, 24 h; Potency: growth rescue; series mostly up to 76.6 µM
Outline: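 Absorbance at 600 nm, taken 24hr after compound addition, measured rescue of FUS-yeast growth at 30C. Induction used 2% galactose with seeding at OD 0.005. Controls: CP55940 from 92uM final, DMSO only.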
Potency is read from the fitted curve at half-maximal effect; tags tell the direction and shape of the fitted curve.

SMILES | Potency
O=c1c2ccc(F)cc2nc2sc(Nc3ccc4c(c3)CCC4)nn12 | inactive
NC(=O)[C@H]1CC2(CC(c3cccc(NC(=O)COc4ccc(Cl)cc4)c3)=NO2)CN1C(=O)c1ccccc1C(=O)c1ccccc1 (stereo not given in full) | inconclusive: 31.6 µM [activator, single point]
NNC(=O)c1ccc(COc2cccc3cccnc23)cc1 | inconclusive: 50.1 µM [activator, partial curve, poor fit]
CC(C)N1CCc2c(sc(N)c2C#N)C1 | inactive
COc1cccc(NC(=O)CSc2nc(O)c(C/C=C/c3ccccc3)c(=O)[nH]2)c1 | inconclusive: 31.6 µM [activator, single point]
CCC(=O)Nc1cc(C(=O)NCc2ccc(C)cc2)ccc1S(=O)(=O)c1ccc(C)cc1 | inconclusive: 31.6 µM [activator, single point]
O=C(Nc1ccccc1N1CCN(C(=O)c2ccc(Cl)cc2)CC1)c1cc2ccccc2o1 | inconclusive: 28.2 µM [activator, single point]
N#C/C(=N\Nc1ccc(F)cc1)C(=O)C1CC1 | inconclusive: 39.8 µM [activator, single point]
CCOC(=O)c1c(-c2ccccc2)oc2ccc(OC)cc12 | inactive
COc1cccc(Cn2c(NCC(C)C)nc3c2c(=O)n(C)c(=O)n3C)c1 | inconclusive: 56.2 µM [activator, partial curve, poor fit]
CCN1CCN(S(=O)(=O)c2ccc(Oc3ccccc3OC)cc2)CC1 | inactive
COc1cccc2c1O/C(=N\O)C(C(=O)Nc1cccc(Br)c1)C2 (stereo not given) | inactive
COc1ccccc1N1CCN(C(c2cc3ccc(C)cc3[nH]c2=O)c2nnnn2C2CCCC2)CC1 (stereo not given) | inconclusive: 12.6 µM [activator, partial curve]
COc1ccc(Cl)cc1NC(=O)C(C)n1nnc2sc3c(c2c1=O)CCCC3 (stereo not given) | inactive
CCCCCCCOC(=O)C[N+](C)(C)CCOC1CC2CCC1(C)C2(C)C (stereo not given) | inconclusive: 25.1 µM [activator, partial curve, poor fit]
CCOC(=O)COc1ccc2nsnc2c1Cl | inconclusive: 5.01 µM [activator, single point]
CCOC(=O)CSC1=NC(=O)/C(=C\c2ccc(OC(C)=O)cc2)S1 | inactive
Cc1cc(C)cc(Cn2c3ccc(NC(=S)NC4CCCCC4)cc3c(=O)n2C)c1 | active: 28.2 µM
CCC1CCCN1Cn1cnc2c([nH]c3ccc(OC)cc32)c1=O (stereo not given) | inactive
CCOc1ccc(NC(=O)CC2C(=O)N(c3cccc(OC)c3)C(=O)N2C2CCCCC2)cc1 (stereo not given) | inconclusive: 31.6 µM [activator, partial curve, poor fit]
